Experimental data: PubChem BioAssay AID624170 (National Center for Advancing Translational Sciences (NCATS), 2012)
The campaign covered roughly 410,000 compounds. About 850 (0.21%) were called active. Inconclusive means that the source gave no clear call. Such entries were picked first, then a sample of the others. Calls come from the whole dose curve; as a rule, active = well fitted inhibition curve with a large enough effect; inconclusive = small, poorly fitted or top-dose-only effect, or another doubt; inactive = no such curve, though single readings can be large or run the other way. Potencies of inconclusive entries are doubtful fits and often do not repeat.

molecular target: Glutaminase kidney isoform, mitochondrial (Homo sapiens) (UniProt O94925); test: qHTS for Inhibitors of Glutaminase (GLS); details: GLS enzymatic activity, qHTS titration; series mostly up to 45.5 µM; activity change, negative = inhibition: at the top concentration
Method in brief: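 Assay buffer: 45 mM KH2PO4 pH 8.2, 0.02% Tween-20. hKGA acts on L-glutamine (1 mM solution added); product glutamate is reported by an oxidase/peroxidase Amplex Red coupling, with fluorescence taken at baseline and 30 min.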
% is set by controls: 0 for no effect and ±100 for the full control effect; potency is the fitted concentration of half-maximal effect; tags give direction and shape of the fitted curve.

UniProt O94925, sequence (O94925 whole entry, looked up, canonical isoform): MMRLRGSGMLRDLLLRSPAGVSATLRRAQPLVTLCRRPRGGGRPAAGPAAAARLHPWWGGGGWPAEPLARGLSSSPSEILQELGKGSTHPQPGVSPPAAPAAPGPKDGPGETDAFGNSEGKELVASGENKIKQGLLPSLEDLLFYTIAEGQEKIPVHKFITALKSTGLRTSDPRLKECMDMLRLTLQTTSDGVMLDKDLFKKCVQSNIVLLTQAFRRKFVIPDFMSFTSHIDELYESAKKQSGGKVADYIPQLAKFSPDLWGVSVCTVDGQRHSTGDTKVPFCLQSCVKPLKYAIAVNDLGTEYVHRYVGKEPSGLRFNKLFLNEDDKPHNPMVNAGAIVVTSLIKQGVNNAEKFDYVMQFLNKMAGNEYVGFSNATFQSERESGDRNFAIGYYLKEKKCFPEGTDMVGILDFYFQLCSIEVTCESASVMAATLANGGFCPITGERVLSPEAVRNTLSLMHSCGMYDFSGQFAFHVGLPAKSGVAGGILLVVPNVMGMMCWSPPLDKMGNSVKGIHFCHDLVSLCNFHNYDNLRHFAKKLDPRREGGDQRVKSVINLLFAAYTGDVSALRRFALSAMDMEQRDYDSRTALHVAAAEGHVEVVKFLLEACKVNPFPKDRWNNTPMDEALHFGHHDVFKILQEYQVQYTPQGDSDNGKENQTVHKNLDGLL

Potency, inconclusive:
CCOC(=O)c1cc(CC)sc1NC(=O)C1CC(=O)NN1Cc1ccccc1 (centres undefined) 11.2 µM [inhibitor, partial curve]
CCN1CCCc2cc(CN(CCN3CCOCC3)C(=S)Nc3cccc(Cl)c3)ccc21 35.5 µM [inhibitor, single point]
Cc1cc2cc3c(cc2nc1SCc1ccc(C(=O)O)cc1)OCCO3 25.1 µM [inhibitor, single point]
CCOc1ccccc1C1C2=C(COC2=O)Nc2cc3c(cc21)OCO3 (centres undefined) 17.8 µM [inhibitor, single point]
Cc1ccc(NC(=O)c2sc(-n3nc(C)c(Cc4ccc5c(c4)OCO5)c3C)nc2C)cc1C 5.62 µM [inhibitor, single point]
CN(C)C(=O)COC(=O)c1ccc(S(=O)(=O)NCc2ccco2)cc1 11.2 µM [inhibitor, partial curve]
O=C(NN=C1CCCC1)c1ccccc1O 22.4 µM [inhibitor, single point]
Cc1ccc(Cl)cc1NC(=O)CC(O)(C(F)(F)F)C(F)(F)F 6.31 µM [inhibitor, single point]
O=c1c2ccccc2sn1-c1ccc(Cl)cc1Cl 35.5 µM [inhibitor, single point]
COc1ccc(-c2cn(-c3ccc(C)c(C)c3)c(=S)[nH]2)cc1OC 35.5 µM [inhibitor, single point]
COc1ccc(NS(=O)(=O)c2cc(N)ccc2N2CCCC2)cc1 10 µM [inhibitor, partial curve]
Cc1sc(NC(=O)Cn2[nH]c(=O)c3ccccc3c2=O)nc1-c1ccccc1 14.1 µM [inhibitor, partial curve, poor fit]
N#CC1=C(N)NC(=S)C(C(N)=O)C1c1ccc(Cl)cc1Cl (centres undefined) 10 µM [inhibitor, partial curve]
Cc1ccc(NC(=O)CSC2=Nc3ccccc3C3CC=NN23)c(C)c1 (centres undefined) 35.5 µM [inhibitor, single point]
CC(C)=C1C(=O)NN(c2cccc(Cl)c2)C1=O 12.6 µM [inhibitor, single point]
COc1ccc(-c2csc(Nc3cccc(C)n3)n2)cc1C 11.2 µM [inhibitor, single point]
CCc1ccc2cccc3c2c1N=CN3C 12.6 µM [inhibitor, single point]
CNC(CC(=O)c1ccc([N+](=O)[O-])cc1)C(Cl)(Cl)Cl (centres undefined) 35.5 µM [inhibitor, single point]
O=C1C(=O)C(c2ccccc2)C(=O)C1c1ccccc1 (centres undefined) 35.5 µM [inhibitor, single point]
O=C(NNc1cc(Cl)cc(Cl)c1)C1CCC1 12.6 µM [inhibitor, partial curve]
COc1ccc(-n2cnnc2SCC(=O)N(C)c2ccccc2)cc1 1.12 µM [inhibitor, full curve]
Cc1cccc(Nc2ccccc2C(=O)NCc2ccco2)c1C 3.16 µM [inhibitor, single point]
S=c1[nH]nc(-c2ccc(Cl)cc2Cl)n1-c1ccc(Cl)cc1 35.5 µM [inhibitor, single point]
COc1ccc(S(=O)(=O)N2CCN(C(=O)C3COc4ccccc4O3)CC2)cc1 (centres undefined) 11.2 µM [inhibitor, partial curve]
CCCc1ccc(C(=O)NNc2cc(Cl)ccc2Cl)cc1 12.6 µM [inhibitor, partial curve]
Cc1ccc2oc(=O)n(CCCOc3ccc(Cl)cc3)c2c1 31.6 µM [inhibitor, partial curve, poor fit]
C/C(CC(=O)Nc1cccc(C(F)(F)F)c1)=N\NC(=O)c1ccncc1 11.2 µM [inhibitor, partial curve]
COc1ccc(Cc2nnc(NC(=O)Cc3cccs3)s2)cc1 25.1 µM [inhibitor, single point]
CC(=O)Nc1ccccc1NC(=O)C/C(C)=N/NC(=O)C(=O)N1CCCCC1 12.6 µM [inhibitor, single point]
O=C(NCc1ccco1)c1sc(=S)n2c1[nH]c(=O)c1ccccc12 35.5 µM [inhibitor, single point]
c1ccc(CCc2nn3c(Cc4ccccc4)nnc3s2)cc1 25.1 µM [inhibitor, single point]
NC(=O)c1nsc(C(=O)N(Cc2cccnc2)C(C(=O)NC2CCCCC2)c2ccc(F)cc2)c1N (centres undefined) 22.4 µM [inhibitor, single point]
CC(=O)N1c2ccc(S(=O)(=O)NCCC(=O)N(C)C3CCCCC3)cc2CC1C (centres undefined) 35.5 µM [inhibitor, single point]
COc1c(O)c(=O)n2c3ccccc3c3ccnc1c32 35.5 µM [inhibitor, single point]
Cc1ccc(C)n1-c1ccc(C(=O)NN)cc1 22.4 µM [inhibitor, single point]
Cc1ccc(NC(=O)NNC(=O)c2ccc3c(c2)NC(=O)C(C)(C)O3)cc1 10 µM [inhibitor, partial curve]
COc1cc(CN2CCCC(CO)(Cc3ccccc3)C2)ccc1O (centres undefined) 7.08 µM [inhibitor, partial curve, poor fit]
COc1cccc(/C=N/Nc2nc3ccccc3[nH]2)c1OC 14.1 µM [inhibitor, single point]
COCCCNc1nc2c(c(=O)n(Cc3ccc(Cl)cc3)c(=O)n2C)n1C 15.8 µM [inhibitor, single point]
CC1=C(C#N)C(=O)NC(=O)/C1=C\c1ccc(-c2ccc(C)cc2[N+](=O)[O-])o1 35.5 µM [inhibitor, single point]
Nc1ccc(N=Nc2ccccc2O)c(N)c1 14.1 µM [inhibitor, single point]
CCc1cc(-c2n[nH]c(=S)n2-c2ccccc2C)cs1 8.91 µM [inhibitor, partial curve, poor fit]
COc1ccc(NC(=O)c2c[nH]c(=O)n(-c3ccc(C)c(C)c3)c2=O)c(OC)c1 35.5 µM [inhibitor, partial curve, poor fit]
CC(C)(C)c1ccc(-c2nc(SCC(=O)Nc3ccccc3F)n3[nH]c(=O)cc3n2)cc1 17.8 µM [inhibitor, single point]
COc1ccc(C2NC(=S)NC3=C2CCc2cc(OC)ccc23)cc1 (centres undefined) 0.282 µM [inhibitor, full curve, poor fit]
O=C(c1ccccc1)c1ccc(OC(=O)N2CCOCC2)cc1 35.5 µM [inhibitor, single point]
CCCCCCCC#Cc1ccccc1/C=N/S(=O)c1ccc(C)cc1 (centres undefined) 31.6 µM [inhibitor, single point]
Cc1cc(Nc2ccc(N3CCOCC3)cc2)c2cccc(C)c2n1 12.6 µM [inhibitor, partial curve]
O=c1cc(-c2ccccc2)[nH]c2[nH]n(-c3ccccc3)c(=O)c12 35.5 µM [inhibitor, single point]

Activity change, negative = inhibition, inactive:
Cc1nc2sc(C(N)=O)c(N)c2c(-c2ccc(Br)cc2)c1C(=O)Nc1ccc(Cl)cc1 15.4%
NC(=S)N/N=C/c1ccc(-c2ccc([N+](=O)[O-])cc2)o1 18.9%
Fc1ccc(Cn2nnnc2C(c2cccs2)N2CCN(C3CCCCC3)CC2)cc1 (centres undefined) -16.6%
CC(C)N1C(=O)C(Cc2nc3ccccc3c(=O)n2-c2ccccc2)c2ccccc21 (centres undefined) 12.5%
CCCCN(C(=O)C(C)N1C(=O)c2ccccc2C1=O)c1c(N)n(CC(C)C)c(=O)[nH]c1=O (centres undefined) 3.35%
COc1cccc(C(=O)NN2C(=O)C3C4C=CC(O4)C3C2=O)c1 (centres undefined) 5.32%
CNC(C)C#Cc1ccc2sc3cccc(OC)c3c(=O)c2c1 (centres undefined) 0.038%
Cc1ccc(C)c(NC(=O)COC(=O)CCc2ccc(S(=O)(=O)N3CCOCC3)cc2)c1 -4.96%
COc1ccc(C(NCC(=O)NC(C)c2ccc(Cl)cc2)c2ccccc2)cc1 (centres undefined) 14.6%
Cc1nn(Cc2ccccc2)c(C)c1N 2.16%
COCCNC(=O)C(c1ccc(F)cc1)N(Cc1cccs1)C(=O)CCC(=O)Nc1ccccn1 (centres undefined) 3.84%
COc1ccccc1CNC(=O)C1CCCN(S(=O)(=O)c2ccc3c(c2)CC(C)N3C(C)=O)C1 (centres undefined) 6.33%
Nc1cc(N)nc(SCC(=O)NC(=O)NC2CCCC2)n1 3.86%
CCOc1ccc(CNC(=O)Cn2cc3c(n2)-c2c(oc(C(=O)N4CCOCC4)c2C)CC3)cc1 -12.1%
C[C@@H]1CN([C@H](C)CO)C(=O)CCCn2cc(nn2)CO[C@H]1CN(C)S(=O)(=O)c1ccc2ccccc2c1 -3.61%
O=C(Nc1ccccc1F)Nc1cc(S(=O)(=O)N2CCOCC2)ccc1N1CCCC1 -1.13%
COc1cc2c(cc1OC)C(c1ccc(-c3ccc(Cl)cc3Cl)o1)=NCC2 -11.2%
c1ccc(-c2csc(NNC3=NCCCCC3)n2)cc1 44.6%
COc1ccc(NC(=O)c2c(NCc3cccc(OC)c3)sc3c2CCCC3)cc1 -2.77%
Cc1cccn2c(=O)c(C(=O)NCCc3ccc(S(N)(=O)=O)cc3)c(O)nc12 -6.14%
